Measured values from the antibiotic and cytotoxicity screens of Wong et al. (2023).
The list shows a part of the results.

Legend:
HSkMC = human skeletal muscle cells; assay: cytotoxicity call (relative viability < 0.9); settings: 10 µM
HepG2 = assay: cytotoxicity call (relative viability < 0.9); settings: 10 µM
S. aureus RN4220 = assay: growth inhibition call (relative growth <= 0.2); settings: 50 µM

Compound | cytotoxicity call (HSkMC) | cytotoxicity call (HepG2) | growth inhibition call (S. aureus RN4220)
C[C@H]1CN([C@@H](C)CO)C(=O)c2cc(NC(=O)Cc3cn(C)c4ccccc34)ccc2O[C@@H]1CN(C)Cc1ccc(Cl)c(Cl)c1 | active | inactive | inactive
C[C@@H]1CN([C@@H](C)CO)C(=O)c2cc(NC(=O)Nc3cccc4ccccc34)ccc2O[C@H]1CN(C)Cc1ccc(C(F)(F)F)cc1 | inactive | active | inactive
C[C@@H]1CCCCO[C@@H](CN(C)Cc2ccc(C(F)(F)F)cc2)[C@H](C)CN([C@H](C)CO)C(=O)c2cc(NC(=O)Nc3ccc4c(c3)OCO4)ccc2O1 | active | active | inactive
